The full ranking holds about 110,000 compounds; the median of “z-score” is about -0.1, and the highest 2% start at about 2. Some of the results follow.

The source of these data is PubChem BioAssay AID488969 (Vanderbilt High Throughput Screening Facility, 2010).

The assay has as its target Metabotropic glutamate receptor 8 (Rattus norvegicus) (UniProt P70579). Description: mGluR8 Gi/Go-coupled signaling modulation – cell-based, rat, thallium flux, HTS, primary screen (AID 488969). The conditions noted are these: HEK293 rat mGluR8, GIRK (G protein-gated inwardly rectifying potassium channel) thallium flux, FluoZin2; at 10 µM; stronger effect = higher value; submaximal glutamate (EC20) added with thallium.
Sequence of UniProt P70579 (P70579 whole entry, looked up): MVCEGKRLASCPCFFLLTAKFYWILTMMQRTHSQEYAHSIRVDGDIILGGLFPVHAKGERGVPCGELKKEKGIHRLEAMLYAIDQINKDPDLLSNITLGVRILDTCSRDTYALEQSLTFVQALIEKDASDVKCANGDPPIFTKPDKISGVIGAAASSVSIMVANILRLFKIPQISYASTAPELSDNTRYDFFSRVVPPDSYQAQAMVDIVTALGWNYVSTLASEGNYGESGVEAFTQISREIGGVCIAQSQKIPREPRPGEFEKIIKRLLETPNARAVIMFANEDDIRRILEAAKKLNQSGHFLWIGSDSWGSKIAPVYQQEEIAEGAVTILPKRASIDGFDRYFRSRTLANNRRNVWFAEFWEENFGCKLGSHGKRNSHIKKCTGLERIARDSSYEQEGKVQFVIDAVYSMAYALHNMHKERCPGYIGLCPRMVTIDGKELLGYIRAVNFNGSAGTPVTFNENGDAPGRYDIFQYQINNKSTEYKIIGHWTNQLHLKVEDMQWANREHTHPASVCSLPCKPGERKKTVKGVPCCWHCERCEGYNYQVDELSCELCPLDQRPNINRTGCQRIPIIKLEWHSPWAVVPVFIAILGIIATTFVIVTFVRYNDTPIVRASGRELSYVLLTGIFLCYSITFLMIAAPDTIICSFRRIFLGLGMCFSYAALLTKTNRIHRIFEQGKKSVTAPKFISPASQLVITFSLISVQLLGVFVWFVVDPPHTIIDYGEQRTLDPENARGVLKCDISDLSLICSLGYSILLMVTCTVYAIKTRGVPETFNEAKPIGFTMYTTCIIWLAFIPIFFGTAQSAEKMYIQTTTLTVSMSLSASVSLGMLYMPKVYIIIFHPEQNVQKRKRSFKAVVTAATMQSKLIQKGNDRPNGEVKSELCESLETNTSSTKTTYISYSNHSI
For the compound `CC(C)(C)SCCNC(=O)CSCc1ccc([N+](=O)[O-])cc1`, the z-score was -0.0767.
`CO/N=C(/CNC(=O)c1cccc(Cl)c1)c1ccc(Cl)cc1` had a z-score of 0.219.
`Cn1c(C(=O)NCCCN2CCCCC2)cc2sccc21` had a z-score of 0.351.
`Cc1cc2cc(C(c3nnnn3Cc3ccco3)N3CCCCC3)c(=O)[nH]c2cc1C` (centres undefined) returned a z-score of -0.431.
In turn, `CC(C)C(=O)c1cc2c(cc1NC(=O)Nc1cccc3ccccc13)OCCO2` displayed a z-score of -0.506.
The compound `CCC(=O)Nc1cnc(NC(=O)c2cccc(F)c2)cc1C` returned a z-score of 0.0528.
`COc1cccc(C(=O)O/N=C/c2ccc(Sc3ccc(C)cc3)nc2)c1` displayed a z-score of -0.182.
Consider `Cc1ccc(S(=O)(=O)N(CC(O)CN2CCOCC2)c2cc(Cl)ccc2Cl)cc1` (centres undefined), for which the z-score was -1.77.
As to `Cc1nn(Cc2ccccc2)c(C)c1C(=O)OCC(=O)c1cc(C)n(CC(F)(F)F)c1C`, the z-score was -0.197.
`Cc1scc(C(=O)NNC(=S)NCc2ccccc2)c1C` displayed a z-score of 0.0158.
With `CCNc1nc(Oc2ccc(C(=O)OC)cc2)nc(N(C)C)n1`, the z-score came to 0.609.
The figure for `CCOC(=O)c1c(C)nc(-c2ccccc2)nc1NC(=O)CC` is 1.02.
In the case of `CN1CCN(C(=O)c2cc(Cl)ccc2Cl)CC1` it was -0.158.
For `O=C1c2cccnc2C(=O)N1CO`, the z-score amounted to 1.18.
In the case of `COC(=O)CSc1nnnn1-c1ccccc1`, the z-score amounted to 1.26.
The figure for `C/C=C/C(=O)OCC(=O)Nc1ccc(OC)c(Cl)c1` is -0.123; for `Cn1ncc(Cl)c1C(=O)Nc1cccc(Cl)c1` it is 0.16; for `COc1ccc(NC(=O)c2cc3c(s2)CCC3)cc1S(=O)(=O)N1CCOCC1` it is 0.294.
For `C(=C\c1ccccc1)/CN1CCN(c2ncnc3c2oc2ccccc23)CC1`, the z-score is 0.364.
The compound `CC(C)(C)n1ncc2c(=O)n(CC(=O)N3CCCc4ccccc43)cnc21` showed a z-score of -0.524.
The figure for `O=C(CCCN1C(=O)c2ccccc2C1=O)NCc1ccco1` is -0.437.
With `CC(C)(CO)Nc1nc(N2CCCC2)nc(N2CCCC2)n1`, the z-score came out at 2.09.
On to `Cc1ccc(NC(=O)c2sccc2C)cc1[N+](=O)[O-]`, for which the z-score was -0.17.
The compound `Cc1cc(C)c(C)c(S(=O)(=O)N2CCN(CC(=O)c3c(N)n(Cc4ccccc4)c(=O)n(C)c3=O)CC2)c1C` returned a z-score of -0.0871.
Compound `COc1ccc(-c2nnn(CC(=O)N(Cc3cccs3)C(C)C(=O)NC3CCCC3)n2)cc1OC` (centres undefined) had a z-score of -0.384.
On to `O=C(Cc1ccc(-n2c(=O)c3sccc3n(Cc3ccc(F)cc3)c2=O)cc1)NCc1ccco1`, for which the z-score was -0.64.
In the case of `CC(=NCCCNC1CCCCC1)C1=C(O)CC(C)(C)CC1=O`, the z-score was -0.0935.
Consider `NS(=O)(=O)c1ccc(CCNC(=O)NC2(C(F)(F)F)Oc3ccccc3O2)cc1`, for which the z-score is -0.179.
In the case of `COc1ccc(Cl)cc1NC(=O)c1cccc(NC(=O)CCC(=O)O)c1`, the z-score was -0.178.
For the compound `CCN1CCC(=NNC(=O)CC23CC4CC(CC(C4)C2)C3)CC1`, the z-score is 0.244.
On to `O=[N+]([O-])c1ccccc1NCc1ccc(Cl)cc1`, for which the z-score amounted to 0.0358.
The figure for `COc1ccc(C(=O)COC(=O)[C@H](C)Nc2ccc(C(F)(F)F)cc2[N+](=O)[O-])c(OC)c1` is 0.408.
As to `CCOC(=O)COc1ccc(S(=O)(=O)N2CCN(c3ccccc3F)CC2)cc1`, the z-score is -0.0629.
In the case of `CCOC(=O)c1ccc(S(=O)(=O)N2CCN(C(=O)CSc3nc4ccccc4o3)CC2)cc1` it was -0.417; in that of `O=C(NCCN1C(=O)C2C3C=CC(C3)C2C1=O)Nc1ccccc1` (centres undefined), 0.165.
In turn, `Cc1cc(C(=O)N/N=C/C=C/c2ccccc2)c(C)o1` showed a z-score of -0.263.
Regarding `Cc1ccc(C(C)C)c(OCC(=O)Nc2ccccc2N2CCN(C)CC2)c1`, the z-score is 0.145.
With `CC(=O)NC(Cc1ccccc1)C(=O)O` (centres undefined), the z-score is -0.133.
In turn, `COc1cccc(C2C(C(=O)c3ccc(C)o3)=C(O)C(=O)N2CCCN(C)C)c1` (centres undefined) gave a z-score of -0.00888.
`CN1CCC(N(C)C(=O)c2ccccc2Nc2ccc(SC(F)F)cc2)CC1` displayed a z-score of -0.436.
As for `CC(C)C(=O)Nc1cccc(C(=O)NCc2ccc(S(N)(=O)=O)cc2)c1`, the z-score was -0.267.
`CCOC(=O)C1CCN(C2CC(=O)N(c3ccc(OCC)cc3)C2=O)CC1` (centres undefined) registered a z-score of -0.083.
As for `O=c1oc2ccccc2nc1/C=C(O)/C=C/c1ccc(F)cc1`, the z-score is -0.0634.
In the case of `CCc1nc2ccccc2n1CC(=O)N1CCN(S(=O)(=O)c2cccc(C(F)(F)F)c2)CC1` it was -0.0276; in that of `COC(=O)c1nnn(CC(=O)Nc2cc(Cl)ccc2C)c1C(=O)OC`, -0.484; in that of `CC1S/C(=N/N=C/c2ccco2)NC1=O` (centres undefined), -0.0698.
For the compound `CCN=C1S/C(=C\c2ccc(OC)c(OCC)c2)C(=O)N1CC`, the z-score came out at 0.509.
The figure for `CC(=O)c1ccc(NC(=O)N[C@@H](CC(C)C)C(=O)O)cc1` is 0.0309.
The figure for `O=C(Nc1cccc(Cl)c1)OCc1cnc(Cl)s1` is -0.0303.
In turn, `O=C(CCN1CCc2ccccc2C(O)(c2ccccc2)C1)c1ccc2c(c1)OCCO2` (centres undefined) returned a z-score of 0.00375.
The compound `Cc1cc(C)c(NC(=O)C(C)Sc2nnc(-c3ccco3)n2-c2ccccc2)c(C)c1` (centres undefined) came in with a z-score of -0.439.
In turn, `CC1(C)Cc2c(C#N)c(SCc3ccccc3)nc(N3CCOCC3)c2CO1` yielded a z-score of 0.00848.
In the case of `O=C(CSc1ncn[nH]1)Nc1ccc(S(=O)(=O)N2CCCC2)cc1` it was 0.00256; in that of `CCOc1ccccc1C1C(C#N)=C(N)Oc2cc(N)ccc21` (centres undefined), -1.11; in that of `CC(=O)c1c(C)nc(-c2ccc(Cl)cc2Cl)n1O`, 1.47.
`CCC(c1nnnn1Cc1ccc2c(c1)OCO2)N1CCN(c2ccccc2)CC1` (centres undefined) displayed a z-score of -0.0847.
`COc1ccc(N2CC(NC(=O)NC(C)(C)C)CC2=O)cc1` (centres undefined) displayed a z-score of -0.154.
`Cc1ccc(S(=O)(=O)N2CCCCC2C(=O)NCc2ccco2)cc1` (centres undefined) returned a z-score of 0.161.
For the compound `CC(=O)NC(CCS(C)(=O)=O)C(=O)Nc1c(F)cccc1F` (centres undefined), the z-score is 0.442.
Compound `O=C(c1ccc(S(=O)(=O)c2cccc(Cl)c2)c([N+](=O)[O-])c1)N1CCN(Cc2ccccc2)CC1` came in with a z-score of 0.264.
The compound `CCc1ccc(-c2csc(NC(=O)Oc3ccccc3)n2)cc1` showed a z-score of -0.119.
Consider `CC1(C)CC(=O)c2c(nn(-c3ccccc3)c2-c2ccncc2)C1`, for which the z-score is -0.129.
Regarding `Cn1c(=O)n(C)c2cc(NC(=O)CCl)ccc21`, the z-score came to 0.155.
The figure for `CC(=NC1CCN(Cc2ccccc2)CC1)c1c(O)[nH]c(=O)[nH]c1=O` is -0.0981; for `Cc1ccccc1-c1nc(Cc2ccccc2)no1` it is -0.00202.
`O=C(NCCCCc1ccccc1)C1CC(c2ccccc2[N+](=O)[O-])=NO1` (centres undefined) gave a z-score of -0.227.
`CCc1cccc(CC)c1NC(=O)COC(=O)CC1c2ccccc2CCN1S(=O)(=O)c1ccccc1` (centres undefined) had a z-score of 0.484.
In turn, `COC(=O)c1[nH]c2ccccc2c1NC(=O)CN1CC(C)OC(C)C1` (centres undefined) gave a z-score of 0.195.
`CC(C)(C)NC(=O)CSc1nncn1NCc1cccc2ccccc12` returned a z-score of -0.0771.
